Common to all, as to assay: glycan array binding signal (z-score within array); higher = stronger binding
Common to all, as to settings: glycan notation: IUPAC condensed, linker removed

Experiment [1] has as its target GlcNAc(b1-3)Gal(b1-4)GlcNAc(b1-2)Man(a1-3)[GlcNAc(b1-3)Gal(b1-4)GlcNAc(b1-2)Man(a1-6)]Man(b1-4)GlcNAc(b1-4)GlcNAc. The essentials: (§1)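 From the Consortium for Functional Glycomics database, 3228 arrays were curated, keeping only those whose protein sequence was available. Binding is given as a within-array Z-score averaged across arrays sharing a protein sequence and across linkers. Negative Z-scores can be read as non-binding.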

For experiment [2], the target named is GlcNAc(b1-3)Gal(b1-4)GlcNAc(b1-2)Man(a1-3)[GlcNAc(b1-3)Gal(b1-4)GlcNAc(b1-2)Man(a1-6)]Man(b1-4)GlcNAc(b1-4)[Fuc(a1-6)]GlcNAc. The essentials:
as §1

In experiment [3] the target is GlcNAc(b1-3)Gal(b1-4)GlcNAc(b1-2)[GlcNAc(b1-3)Gal(b1-4)GlcNAc(b1-6)]Man(a1-6)[GlcNAc(b1-3)Gal(b1-4)GlcNAc(b1-2)Man(a1-3)]Man(b1-4)GlcNAc(b1-4)GlcNAc. The essentials: as §1
The target of experiment [4] is GlcNAc(b1-3)Gal(b1-4)GlcNAc(b1-3)Gal(b1-4)GlcNAc. The essentials:
as §1

Experiment [5] concerns the target GlcNAc(b1-3)Gal(b1-4)GlcNAc(b1-3)Gal(b1-4)GlcNAc(b1-2)Man(a1-3)[GlcNAc(b1-3)Gal(b1-4)GlcNAc(b1-3)Gal(b1-4)GlcNAc(b1-2)Man(a1-6)]Man(b1-4)GlcNAc(b1-4)GlcNAc. The essentials:
as §1

Experiment [6] concerns the target GlcNAc(b1-3)Gal(b1-4)GlcNAc(b1-3)Gal(b1-4)GlcNAc(b1-2)Man(a1-3)[GlcNAc(b1-3)Gal(b1-4)GlcNAc(b1-3)Gal(b1-4)GlcNAc(b1-2)Man(a1-6)]Man(b1-4)GlcNAc(b1-4)[Fuc(a1-6)]GlcNAc. The essentials:
as §1

Experiment [7] deals with GlcNAc(b1-3)Gal(b1-4)GlcNAc(b1-3)Gal(b1-4)GlcNAc(b1-2)[GlcNAc(b1-3)Gal(b1-4)GlcNAc(b1-3)Gal(b1-4)GlcNAc(b1-6)]Man(a1-6)[GlcNAc(b1-3)Gal(b1-4)GlcNAc(b1-3)Gal(b1-4)GlcNAc(b1-2)Man(a1-3)]Man(b1-4)GlcNAc(b1-4)[Fuc(a1-6)]GlcNAc. The essentials:
as §1

Experiment [8] concerns the target GlcNAc(b1-3)Gal(b1-4)GlcNAc(b1-3)Gal(b1-4)GlcNAc(b1-3)Gal(b1-4)GlcNAc(b1-2)Man(a1-3)[GlcNAc(b1-3)Gal(b1-4)GlcNAc(b1-3)Gal(b1-4)GlcNAc(b1-3)Gal(b1-4)GlcNAc(b1-2)Man(a1-6)]Man(b1-4)GlcNAc(b1-4)GlcNAc. The method in brief:
as §1

The target in experiment [9] is GlcNAc(b1-3)Gal(b1-4)GlcNAc(b1-3)Gal(b1-4)GlcNAc(b1-3)Gal(b1-4)GlcNAc(b1-2)Man(a1-3)[GlcNAc(b1-3)Gal(b1-4)GlcNAc(b1-3)Gal(b1-4)GlcNAc(b1-3)Gal(b1-4)GlcNAc(b1-2)Man(a1-6)]Man(b1-4)GlcNAc(b1-4)[Fuc(a1-6)]GlcNAc. The essentials: as §1
In experiment [10] the target is GlcNAc(b1-3)Gal(b1-4)GlcNAc(b1-3)Gal(b1-4)GlcNAc(b1-3)Gal(b1-4)GlcNAc(b1-2)[GlcNAc(b1-3)Gal(b1-4)GlcNAc(b1-3)Gal(b1-4)GlcNAc(b1-3)Gal(b1-4)GlcNAc(b1-6)]Man(a1-6)[GlcNAc(b1-3)Gal(b1-4)GlcNAc(b1-3)Gal(b1-4)GlcNAc(b1-3)Gal(b1-4)GlcNAc(b1-2)Man(a1-3)]Man(b1-4)GlcNAc(b1-4)[Fuc(a1-6)]GlcNAc. The method in brief: as §1
For experiment [11], the target named is GlcNAc(b1-3)Gal(b1-4)GlcNAc(b1-3)Gal(b1-4)GlcNAc(b1-3)Gal(b1-4)GlcNAc(b1-3)Gal(b1-4)GlcNAc(b1-2)Man(a1-3)[GlcNAc(b1-3)Gal(b1-4)GlcNAc(b1-3)Gal(b1-4)GlcNAc(b1-3)Gal(b1-4)GlcNAc(b1-3)Gal(b1-4)GlcNAc(b1-2)Man(a1-6)]Man(b1-4)GlcNAc(b1-4)GlcNAc. The method in brief: as §1
Experiment [12] deals with GlcNAc(b1-3)Gal(b1-4)GlcNAc(b1-3)Gal(b1-4)GlcNAc(b1-3)Gal(b1-4)GlcNAc(b1-3)Gal(b1-4)GlcNAc(b1-2)Man(a1-3)[GlcNAc(b1-3)Gal(b1-4)GlcNAc(b1-3)Gal(b1-4)GlcNAc(b1-3)Gal(b1-4)GlcNAc(b1-3)Gal(b1-4)GlcNAc(b1-2)Man(a1-6)]Man(b1-4)GlcNAc(b1-4)[Fuc(a1-6)]GlcNAc. The essentials:
as §1

In experiment [13] the target is GlcNAc(b1-3)Gal(b1-4)GlcNAc(b1-3)Gal(b1-4)GlcNAc(b1-3)Gal(b1-4)GlcNAc(b1-3)Gal(b1-4)GlcNAc(b1-2)[GlcNAc(b1-3)Gal(b1-4)GlcNAc(b1-3)Gal(b1-4)GlcNAc(b1-3)Gal(b1-4)GlcNAc(b1-3)Gal(b1-4)GlcNAc(b1-6)]Man(a1-6)[GlcNAc(b1-3)Gal(b1-4)GlcNAc(b1-3)Gal(b1-4)GlcNAc(b1-3)Gal(b1-4)GlcNAc(b1-3)Gal(b1-4)GlcNAc(b1-2)Man(a1-3)]Man(b1-4)GlcNAc(b1-4)[Fuc(a1-6)]GlcNAc. The essentials:
as §1

Experiment [14] concerns the target GlcNAc(b1-3)Gal(b1-4)GlcNAc(b1-3)Gal(b1-4)GlcNAc(b1-3)GalNAc. The essentials:
as §1

Experiment [15] deals with GlcNAc(b1-3)Gal(b1-4)GlcNAc(b1-3)GalNAc. The method in brief: as §1
Experiment [16] has as its target GlcNAc(b1-3)Gal(b1-4)GlcNAc(b1-3)[GlcNAc(b1-3)Gal(b1-4)GlcNAc(b1-3)]GalNAc. The essentials:
as §1

Experiment [17] addresses GlcNAc(b1-3)Gal(b1-4)GlcNAc(b1-6)[Gal(b1-3)]GalNAc. The essentials: as §1
For experiment [18], the target named is GlcNAc(b1-3)Gal(b1-4)GlcNAc(b1-6)[GlcNAc(b1-3)Gal(b1-3)]GalNAc. The essentials: as §1
Experiment [19] has as its target GlcNAc(b1-3)Gal(b1-4)GlcNAc(b1-6)[GlcNAc(b1-3)]Gal(b1-4)GlcNAc. The essentials: as §1

The list shows a part of the results.

B1: MGL (Homo sapiens), Q8IUN9 (protein)
chain: MTRTYENFQYLENKVKVQGFKNGPLPLQSLLQRLCSGPCHLLLSLGLGLLLLVIICVVGFQNSKFQRDLVTLRTDFSNFTSNTVAEIQALTSQGSSLEETIASLKAEVEGFKQERQAGVSELQEHTTQKAHLGHCPHCPSVCVPVHSEMLLRVQQLVQDLKKLTCQVATLNNNASTEGTCCPVNWVEHQDSCYWFSHSGMSWAEAEKYCQLKNAHLVVINSREEQNFVQKYLGSAYTWMGLSDPEGAWKWVDGTDYATGFQNWKPGQPDDWQGHGLGGGEDCAHFHPDGRWNDDVCQRPYHWVCEAGLGQTSQESH
Take B1: the “glycan array binding signal (z-score)” value in experiment [1] was -0.24; in experiment [2], -0.244; in [3], -0.152; in [4] it was -0.239; in [5], -0.231; in [6], -0.229. The “glycan array binding signal (z-score)” value in experiment [7] was -0.215; in [8] it was -0.225; in experiment [9], -0.222; in [10], -0.219; in experiment [11] it was -0.236; in [12], -0.212. Moreover, the “glycan array binding signal (z-score)” value in experiment [13] was -0.213; in experiment [14], -0.253; in experiment [15], -0.268; in experiment [16], -0.26; in experiment [17], -0.25; in [18] it was -0.241. For the same molecule, the “glycan array binding signal (z-score)” value in [19] was -0.242.

Values taken from the supplement of paper PMC8728848.
